Test results: PubChem BioAssay (NCATS)
Inconclusive results, whose numbers are uncertain, are shown with a selection of clear calls. For some assays here: Potencies of inconclusive entries are left out as doubtful fits. Calls of active or inactive are those of the source. Calls come from the whole dose curve; as a rule, active = well fitted curve in the direction sought with a large enough effect; inconclusive = small, poorly fitted or top-dose-only effect, or another doubt; inactive = no such curve, though single readings can be large; an effect the other way counts as inactive or inconclusive.

Assays:
[1] = tested on: Zika virus NS2B-NS3 protease; assay: Primary screen GU AMC qHTS for Zika virus inhibitors (AID 1347154); note: nearly all actives have a fitted effect of over 70% in size
In short: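 Fluorogenic AMC-substrate cleavage by noncovalent NS2B-NS3 protease complex (25 nM, pH 8.0 Tris buffer with Tween 20) followed for 15 minutes at room temperature (~20% conversion). Percent inhibition from ex340/em450 signal change, fitted by 4-parameter Hill equation.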

[2] = Primary qHTS for small molecule stabilizers of the endoplasmic reticulum resident proteome: Secreted ER Calcium Modulated Protein (SERCaMP) assay (AID 1508630); settings: SH-SY5Y GLuc-SERCaMP (Gaussia luciferase released on ER calcium loss) secretion, thapsigargin, luminescence; series mostly up to 38.4 µM; note: potency is the fitted concentration of half-maximal effect
In short: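 The SH-SY5Y reporter protocol was run at 3 concentrations up to 38.3 uM (primary) or 11 concentrations (follow-up): 16 h compound, 100 nM thapsigargin for 4 h, then extracellular luciferase luminescence.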
Tags give direction and shape of the fitted curve.

## COc1ccc(CCCn2ncc3c2nc(N)n2nc(-c4ccco4)nc32)cc1
[1]
  Potency: inactive
[2]
  Potency: inconclusive [inhibitor, single point]
